Experimental data taken from publication PMC4336329 (PLoS ONE, 2015).
Screen size: about 310,000 compounds; about 2,200 (0.71%) showed an effect of 50% or more. Effects have a minus sign here. This is one part of the list.

What follows are compounds tested against human ether-à-go-go-related gene (hERG) potassium channel (human, UniProt Q12809) (assay: primary screen, population patch clamp on CHO cells stably expressing hERG).
human ether-à-go-go-related gene (hERG) potassium channel, sequence (Q12809 whole entry, looked up): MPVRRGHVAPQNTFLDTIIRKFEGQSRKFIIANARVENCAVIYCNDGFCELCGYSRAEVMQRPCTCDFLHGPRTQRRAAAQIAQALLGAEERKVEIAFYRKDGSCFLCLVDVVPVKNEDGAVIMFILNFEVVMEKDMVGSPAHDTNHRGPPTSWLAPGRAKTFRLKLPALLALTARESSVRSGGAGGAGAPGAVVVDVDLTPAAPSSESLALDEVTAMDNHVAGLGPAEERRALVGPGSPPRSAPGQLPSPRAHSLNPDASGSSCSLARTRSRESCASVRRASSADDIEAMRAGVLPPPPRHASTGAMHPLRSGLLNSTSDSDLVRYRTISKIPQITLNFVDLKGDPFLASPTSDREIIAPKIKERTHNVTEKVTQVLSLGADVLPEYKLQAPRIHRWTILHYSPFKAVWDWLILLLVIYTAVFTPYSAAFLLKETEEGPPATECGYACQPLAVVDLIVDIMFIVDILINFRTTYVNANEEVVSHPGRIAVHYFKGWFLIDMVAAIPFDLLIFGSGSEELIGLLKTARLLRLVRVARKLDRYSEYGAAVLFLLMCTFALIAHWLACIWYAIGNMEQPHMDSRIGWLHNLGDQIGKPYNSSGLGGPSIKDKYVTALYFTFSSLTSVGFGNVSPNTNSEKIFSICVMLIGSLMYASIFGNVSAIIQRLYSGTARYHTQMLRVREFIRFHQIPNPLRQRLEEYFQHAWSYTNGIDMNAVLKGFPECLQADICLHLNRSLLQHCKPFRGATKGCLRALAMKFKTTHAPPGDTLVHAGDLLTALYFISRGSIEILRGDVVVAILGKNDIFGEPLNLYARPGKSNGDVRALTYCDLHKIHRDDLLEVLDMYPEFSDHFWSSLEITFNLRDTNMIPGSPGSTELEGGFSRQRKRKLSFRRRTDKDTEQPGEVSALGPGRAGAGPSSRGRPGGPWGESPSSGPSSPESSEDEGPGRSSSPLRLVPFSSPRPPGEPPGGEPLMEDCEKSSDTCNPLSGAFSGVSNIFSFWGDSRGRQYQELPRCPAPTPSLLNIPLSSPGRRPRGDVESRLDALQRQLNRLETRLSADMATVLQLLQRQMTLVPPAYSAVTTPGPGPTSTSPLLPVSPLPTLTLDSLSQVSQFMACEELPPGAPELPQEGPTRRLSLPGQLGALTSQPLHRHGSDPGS
`Cc1ccc(S(=O)(=O)N2CCN(c3ncccn3)CC2)c(C)c1` was tested, and the “hERG current change (%, negative = inhibition) at 1uM” value was 19.1%.
With `CCCCN1c2ccccc2N(CCCO)c2cc(C)nnc21` the “hERG current change (%, negative = inhibition) at 1uM” value was 10.7%.
For `Cc1ccc(C(=O)Oc2ccc3ccc(=O)oc3c2)cc1`, the “hERG current change (%, negative = inhibition) at 1uM” value was 5.97%.
In the case of `O=CN1CC(=O)N(c2ccccc2)c2c([nH]c3ccccc23)C1`, the “hERG current change (%, negative = inhibition) at 1uM” value is reported as -4.05%.
For `Cc1nc(-c2cccnc2)sc1C(=O)Nc1cccc(C(F)(F)F)c1`, the “hERG current change (%, negative = inhibition) at 1uM” value was -1.29%.
In the case of `COc1ccccc1N(Cc1ccccc1)S(=O)(=O)c1cccc(C(=O)Nc2ccc(C(C)=O)cc2)c1`, the “hERG current change (%, negative = inhibition) at 1uM” value is reported as 2.16%.
`COC(=O)c1ccc(Oc2c(Cl)cccc2[N+](=O)[O-])cc1` was tested, and the “hERG current change (%, negative = inhibition) at 1uM” value was 11.9%.
`Cc1ccc(NC(=O)c2nnn(CC(=O)Nc3ccc4c(c3)OCO4)c2N)cc1C` was tested, and the “hERG current change (%, negative = inhibition) at 1uM” value was 7.24%.
With `COc1ccc(NC(=O)Cc2nnc(SCC(=O)Nc3ccc(F)cc3)n2C)cc1` the “hERG current change (%, negative = inhibition) at 1uM” value was 1.95%.
`Cc1csc(=O)n1CC(=O)OCC(=O)Nc1ccc(F)c(F)c1` was tested, and the “hERG current change (%, negative = inhibition) at 1uM” value was 13.7%.
For `COc1ccc(CC(=O)Nc2ccccc2NC(=O)Cc2ccc(OC)cc2)cc1`, the “hERG current change (%, negative = inhibition) at 1uM” value was 15%.
With `Cc1c(O)c(=O)n(-c2ccccc2)n1C` the “hERG current change (%, negative = inhibition) at 1uM” value was 11.1%.
With `CNC(=O)c1ccccc1NC(=O)c1cccc(S(=O)(=O)N2CCCCC2)c1` the “hERG current change (%, negative = inhibition) at 1uM” value was 1.6%.
`O=C1CSC2(N1)C1CC3CC(C1)CC2C3` (centres unmarked) was tested, and the “hERG current change (%, negative = inhibition) at 1uM” value was 9.64%.
With `c1ccc(-c2nn3nnnc3c3ccccc23)cc1` the “hERG current change (%, negative = inhibition) at 1uM” value was -82.9%.
For `Cc1cc(N2CCOCC2)nc2ccc(NC(=O)CCC(=O)N3CCCC(C)C3)cc12` (centres unmarked), the “hERG current change (%, negative = inhibition) at 1uM” value was 2.05%.
For `COc1ccc(N2CCN(S(=O)(=O)c3cccs3)CC2)cc1`, the “hERG current change (%, negative = inhibition) at 1uM” value was 7.44%.
For `Cc1cccc(C(=O)N[C@H](C(=O)OCC(=O)NC2CCS(=O)(=O)C2)C(C)C)c1` (some centres unmarked), the “hERG current change (%, negative = inhibition) at 1uM” value was 13.4%.
In the case of `C#Cc1ccc([C@@H]2C=C(C(=O)NC3CC3)O[C@H](OCC)[C@H]2CCCO)cc1`, the “hERG current change (%, negative = inhibition) at 1uM” value is reported as 1.55%.
`COc1ccc(NC(=O)c2ccc(C)cc2)c[n+]1[O-]` was tested, and the “hERG current change (%, negative = inhibition) at 1uM” value was 11.8%.
In the case of `CC1CCCN(S(=O)(=O)CCNC(=O)c2ccccc2)C1` (centres unmarked), the “hERG current change (%, negative = inhibition) at 1uM” value is reported as 8.86%.
In the case of `Cc1ccc(Cl)cc1NC(=O)COC(=O)CC(C)(C)C`, the “hERG current change (%, negative = inhibition) at 1uM” value is reported as -1.75%.
With `O=C(Oc1ccccc1)c1cc2ccccc2oc1=O` the “hERG current change (%, negative = inhibition) at 1uM” value was 9.41%.
`CC(C)C(O)(CC#CCN1CCCC1)c1ccccc1.Cl` (centres unmarked) was tested, and the “hERG current change (%, negative = inhibition) at 1uM” value was 17%.
`COc1cccc(/C=C/C(=O)OCC(=O)Nc2ccc(Cl)c(S(=O)(=O)N(C)C)c2)c1OC` was tested, and the “hERG current change (%, negative = inhibition) at 1uM” value was 6.9%.
`CCN(CC)C(=O)COc1ccc(Br)cc1Cl` was tested, and the “hERG current change (%, negative = inhibition) at 1uM” value was 15.7%.
`Cc1ccc(C2(CC(=O)Nc3nccs3)CCOC(C(C)C)C2)cc1` (centres unmarked) was tested, and the “hERG current change (%, negative = inhibition) at 1uM” value was 5.94%.
In the case of `C/C(CC1CC(COCCC(C)C)OC1=O)=N\NC(N)=S` (centres unmarked), the “hERG current change (%, negative = inhibition) at 1uM” value is reported as 6.43%.
`O=C(NCc1ccc(OC(F)(F)F)cc1)C12CN(Cc3ccccc3)CC1C(c1cccc([N+](=O)[O-])c1)=NO2` (centres unmarked) was tested, and the “hERG current change (%, negative = inhibition) at 1uM” value was 21.7%.
With `Cc1cc(-c2nn3c(C)nnc3s2)ccc1NC(=O)C(C)(C)C` the “hERG current change (%, negative = inhibition) at 1uM” value was 13.6%.
With `O=C(NCCCN1CCCC1)c1ccc2c(c1)N(Cc1cccc(Cl)c1)C(=O)c1ccccc1S2=O` (centres unmarked) the “hERG current change (%, negative = inhibition) at 1uM” value was 3.71%.
In the case of `COc1ccc(N2C(=S)NC3N2C(=S)NC3(C)c2ccccc2)cc1` (centres unmarked), the “hERG current change (%, negative = inhibition) at 1uM” value is reported as 12%.
In the case of `COc1ccc2oc(=Nc3cccc(F)c3)c(C(N)=O)cc2c1`, the “hERG current change (%, negative = inhibition) at 1uM” value is reported as 16%.
For `Cc1cccc(N(Cc2ccccc2)C(=O)c2ccc(S(C)(=O)=O)cc2)c1`, the “hERG current change (%, negative = inhibition) at 1uM” value was 13.6%.
For `COc1ccc(C(CCNCc2ccccc2F)c2ccc(F)cc2)cc1` (centres unmarked), the “hERG current change (%, negative = inhibition) at 1uM” value was -0.989%.
In the case of `COc1ccc(-c2nn(-c3ccccc3)cc2/C=C2/SC(=S)N(Cc3ccco3)C2=O)c(C)c1`, the “hERG current change (%, negative = inhibition) at 1uM” value is reported as -1.59%.
With `Cc1nc2c(cc1C(=O)N/N=C/c1ccc(O)c(O)c1)c(=O)n(C)c(=O)n2C` the “hERG current change (%, negative = inhibition) at 1uM” value was 8.58%.
In the case of `C/C(=N/NC(=O)c1ccoc1C)c1ccc(N2CCOCC2)cc1`, the “hERG current change (%, negative = inhibition) at 1uM” value is reported as 4.3%.
`Cc1ccccc1COc1ccc(-c2nnn(CC(=O)O)n2)cc1` was tested, and the “hERG current change (%, negative = inhibition) at 1uM” value was 18.2%.
In the case of `C/C=C/C(=O)Nc1cccc(C2=NOC3(C2)C[C@@H](C(N)=O)N(C(=O)c2cc([N+](=O)[O-])cc([N+](=O)[O-])c2)C3)c1` (some centres unmarked), the “hERG current change (%, negative = inhibition) at 1uM” value is reported as 19.4%.
In the case of `COc1ccc2c(c1)c(C(C)=O)c(C)n2-c1ccccc1OC`, the “hERG current change (%, negative = inhibition) at 1uM” value is reported as 6.98%.
With `CC(C)CN(C(=O)COC(=O)/C=C/c1ccccc1)C1CCS(=O)(=O)C1` (centres unmarked) the “hERG current change (%, negative = inhibition) at 1uM” value was 10%.
`CC(Oc1cccnc1[N+](=O)[O-])C(=O)Nc1ccc(Cl)cn1` (centres unmarked) was tested, and the “hERG current change (%, negative = inhibition) at 1uM” value was -1.21%.
With `Cc1ccc2[nH]c(=O)c(C(c3nnnn3C(C)(C)C)N(Cc3ccco3)CC3CCCO3)cc2c1` (centres unmarked) the “hERG current change (%, negative = inhibition) at 1uM” value was 12.2%.
